Source: PMC4336329 (PLoS ONE, 2015)
Screen size: about 310,000 compounds; about 2,200 (0.71%) showed an effect of 50% or more. The effect is printed as a negative number. This is one part of the list.

The molecules below were run against human ether-à-go-go-related gene (hERG) potassium channel (human, UniProt Q12809) (assay: primary screen, population patch clamp on CHO cells stably expressing hERG).
Chain of human ether-à-go-go-related gene (hERG) potassium channel (Q12809 whole entry, looked up): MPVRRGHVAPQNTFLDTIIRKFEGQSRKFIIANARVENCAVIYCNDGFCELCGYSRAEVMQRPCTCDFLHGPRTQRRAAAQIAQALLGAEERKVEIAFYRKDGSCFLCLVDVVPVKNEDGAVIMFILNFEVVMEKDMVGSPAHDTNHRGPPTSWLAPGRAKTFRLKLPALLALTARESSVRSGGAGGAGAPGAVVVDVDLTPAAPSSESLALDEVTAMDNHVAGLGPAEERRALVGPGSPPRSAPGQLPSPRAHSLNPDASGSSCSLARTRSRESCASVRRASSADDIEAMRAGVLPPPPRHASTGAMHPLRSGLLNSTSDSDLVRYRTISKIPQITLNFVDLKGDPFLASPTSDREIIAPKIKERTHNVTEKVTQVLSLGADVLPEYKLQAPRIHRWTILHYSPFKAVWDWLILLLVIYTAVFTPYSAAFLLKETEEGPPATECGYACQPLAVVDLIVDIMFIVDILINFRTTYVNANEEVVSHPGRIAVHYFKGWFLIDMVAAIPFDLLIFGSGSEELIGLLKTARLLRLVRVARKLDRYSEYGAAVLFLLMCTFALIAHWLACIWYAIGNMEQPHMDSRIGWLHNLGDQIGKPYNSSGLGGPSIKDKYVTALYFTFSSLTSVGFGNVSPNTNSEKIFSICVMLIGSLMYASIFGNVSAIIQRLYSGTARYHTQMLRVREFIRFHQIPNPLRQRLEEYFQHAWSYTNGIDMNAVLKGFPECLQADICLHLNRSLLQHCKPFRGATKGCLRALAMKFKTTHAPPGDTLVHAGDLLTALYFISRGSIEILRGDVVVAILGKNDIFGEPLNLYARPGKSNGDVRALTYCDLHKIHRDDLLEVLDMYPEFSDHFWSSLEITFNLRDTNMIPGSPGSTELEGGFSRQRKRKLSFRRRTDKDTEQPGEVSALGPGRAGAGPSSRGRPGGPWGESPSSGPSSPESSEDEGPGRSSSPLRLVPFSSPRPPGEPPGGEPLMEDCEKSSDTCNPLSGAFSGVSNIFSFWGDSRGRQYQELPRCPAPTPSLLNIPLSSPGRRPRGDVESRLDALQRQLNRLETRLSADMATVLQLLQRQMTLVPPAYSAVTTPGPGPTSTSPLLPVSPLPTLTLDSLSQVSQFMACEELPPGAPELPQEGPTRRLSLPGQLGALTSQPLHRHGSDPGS

Structure (SMILES)	hERG current change (%, negative = inhibition) at 1uM
Cc1nn(-c2ccccc2)c(C)c1C(=O)NCc1ccc(F)cc1	-7.7%
COc1cccc(-c2nnc3sc(-c4ccc(C)cc4)nn23)c1	-5.82%
Cc1cccc(C)c1NC(=O)CCCSc1nnc(-c2ccc(Cl)cc2)n1-c1ccccc1	5.39%
CC(C)CCn1cnc2c(cnn2-c2ccc(F)cc2)c1=O	13.3%
O=C(CN1CCN(Cc2ccccc2)CC1)Nc1ccc(-n2cnnn2)cc1	-15.1%
CN1CCN(C2CC(=O)N(Cc3ccc(N4CCCC4=O)cc3)C2=O)CC1 (stereo not drawn)	12.8%
O=C(CNc1ccc2ccccc2c1)N/N=C/c1ccc(OC(=O)/C=C/c2ccco2)cc1	7.97%
Cl.c1ccc(CN2CCOCC2)cc1	16.6%
O=C(Nc1ccccc1N1CCOCC1)C1=NN(c2c(F)c(F)cc(F)c2F)C(=O)CC1	13.7%
CCn1cc(C(=O)NCC(=O)NC(C)(C)CO)c(=O)c2cc3c(cc21)OCO3	13.7%
CCCCNC(=S)N=Nc1c(O)[nH]c2ccccc12	17.3%
O=C(c1cc(N2C(=O)C3C4CCC(C4)C3C2=O)ccc1Cl)N1CCCCCC1 (stereo not drawn)	5.93%
O=C(CSc1nnc(-c2ccccc2)n1Cc1ccccc1)NNC(=O)c1ccccc1O	16.4%
C[C@H](NC(=O)c1ccc(Cl)c(S(=O)(=O)N2CCOCC2)c1)c1nc2ccccc2[nH]1	6.52%
CC(=O)N1CCC2(CC1)C/C(=N\NC(=S)Nc1ccc(C)cc1)c1cc(O)ccc1O2	-4.2%
O=C(CN1C(=O)c2ccccc2C1=O)N(CCO)Cc1ccccc1	9.13%
O=S(=O)(c1ccc(Cl)s1)N1CCCCC1	16.8%
CCC(c1nnnn1CCc1ccccc1)N1CCN(C(=O)c2ccco2)CC1.Cl (stereo not drawn)	0.523%
Cl.NC(c1ccccc1)c1cccnc1 (stereo not drawn)	13.4%
Cc1nnc(SCc2ccccc2)n1CC1CCCO1 (stereo not drawn)	9%
COc1ccccc1NC(=O)N1CCC(NC(=O)C(Cc2ccccc2F)NC(C)=O)CC1 (stereo not drawn)	10.4%
Cn1c(SCC(=O)N2CCCC2)nc2cccnc21	14.2%

Structure (SMILES)	hERG current change (%, negative = inhibition) at 1uM
CN1CCC(CNC(=O)Nc2ccccc2)(c2ccccc2)CC1	13.8%
Cc1ccc(-c2sc(-c3ccccc3)nc2CC(=O)Nc2ccccc2F)cc1	7.28%
Cc1cc(C)n(Cc2ccc(C(=O)N/N=C/c3ccc(-c4ccc([N+](=O)[O-])cc4)o3)o2)n1	6.96%
CC(C)NCC(O)COC1CCC(C(C)(C)C)CC1.Cl (stereo not drawn)	12.7%
O=C(CSc1nc(-c2ccccc2)c(-c2ccccc2)o1)N1CCOCC1	1.5%
CCCCOn1c(C)c(C(=O)OCC)c2c3no[n+]([O-])c3ccc21	15.8%
COc1cccc2cc(-c3nnc(SCC(=O)NCc4ccccc4)n3C)oc12	15.6%
COc1cccc(OCCNc2cc(N3CCOCC3)ccc2[N+](=O)[O-])c1	10.5%
CCn1c(N)nc2ccccc21	7.84%
NS(=O)(=O)c1ccc(CCNc2cc(=O)n(Cc3ccc(F)cc3)c(=O)[nH]2)cc1	3.62%
O=C(COC(=O)c1ccc2c(c1)OCO2)Nc1ccccc1	11.6%
N#Cc1ccccc1S(=O)(=O)N1CCN(CC(=O)NCC2(N3CCOCC3)CCCCC2)CC1	-2.78%
CC1CCc2sc(C(=O)Nc3ccc(C(N)=O)cc3)cc2C1 (stereo not drawn)	8.85%
CCN1CCCC1CNC(=O)c1ccc2c(c1)NC(=O)/C(=C\c1ccc(C)cc1)S2 (stereo not drawn)	11.8%
COc1ccccc1CC(=O)NCc1csc(-c2cccs2)n1	16.6%
Cc1ncc(CO)c2cc(-c3nnc(Nc4ccc5c(c4)OCO5)s3)c(=O)oc12	10.4%
Cc1ncsc1C(=O)N1CCCC(CNS(=O)(=O)c2cccs2)C1 (stereo not drawn)	7.62%
O=C(N/N=C/c1ccccc1O)C(=O)Nc1ccccn1	16.8%
Cc1ccc(C(=O)N(CN2CCCC2=O)c2ccc(F)cc2)cc1	2.71%
CCc1cc(=O)oc2cc(C)cc(OCC(=O)NCCCN3CCOCC3)c12	7.83%
Cc1onc(-c2c(Cl)cccc2Cl)c1C(=O)Nc1ccc(Cl)cn1	11.3%
O=[N+]([O-])c1cccc(NC(=S)NCCc2ccccc2)c1	11.5%

Structure (SMILES)	hERG current change (%, negative = inhibition) at 1uM
Cc1ccc2c(n1)CC(C)(C)C/C2=N\O	5.55%
CCn1cc(S(=O)(=O)Nc2nc3ccc(OC)cc3s2)cn1	12.5%
Cc1cccc(/C=N/c2sc3c(c2C(=O)OC(C)(C)C)CCN(C)C3)c1O	-7.84%
C/C=C(/C)C(=O)Nc1cccc(C2=NOC3(C2)C[C@@H](C(N)=O)N(C(=O)[C@H]2CCC(=O)N2)C3)c1 (stereo partly drawn)	6.28%
Cc1cc(NC(=O)CCC(=O)N2CCC3(CC2)OCCO3)no1	13.1%
CN1CCN(c2nc3c(c(=O)[nH]c(=O)n3C)n2Cc2ccc([N+](=O)[O-])cc2)CC1	-15.1%
O=C(CCc1nnc(-c2ccccc2)o1)NC1CCCCC1	9.69%
Cc1cccc(NC(=O)C23CCC(C)(C2Br)C3(C)C)c1 (stereo not drawn)	12.2%
COc1cccc(-c2c(NC(=O)c3ccco3)n(-c3ccc(C)cc3)nc(C)c2=O)c1	-6.94%
c1ccc(OCCn2c(-c3ccco3)nc3ccccc32)cc1	4.24%
Cc1cc(C)cc(OCC(O)Cn2nc(C)cc2C)c1 (stereo not drawn)	-0.894%
Cc1cc(C)n2nc(C(=O)N3CCN(Cc4ccc5c(c4)OCO5)CC3)nc2n1	15.9%
O=C(O)c1c2c(nc3ccc(S(=O)(=O)N4CCC(C(=O)N5CCCCC5)CC4)cc13)CCCC2	0.42%
O=C(NN1C(=O)C2C3C=CC(O3)C2C1=O)c1ccccc1 (stereo not drawn)	6.38%
CCOC(=O)Cc1ncccc1C(=O)Nc1ccc(OC)cc1	14%
O=C(NCc1ccccc1)C1=C[C@H](C2CC2)C[C@H](OCCCCO)O1	4.22%
N#Cc1cccc(-n2c(-c3ccccc3)nnc2-c2ccccc2)c1C#N	-6.06%
COc1ccc(CNC(=O)N2CCN(S(=O)(=O)c3ccccc3F)CC2)cc1	15%
Cc1ccc(S(=O)(=O)NCCNc2ccc([N+](=O)[O-])cc2)cc1	3.05%
COc1ccc(C(=O)N[C@H](C(=O)OCc2cc(=O)oc3cc(C)ccc23)C(C)C)cc1	-11.2%
CSc1cccc(NC(C)=O)c1	6.65%
CC(=O)Nc1ccc(S(=O)(=O)N(Cc2ccccc2)C(C)C)cc1	2.91%

Structure (SMILES)	hERG current change (%, negative = inhibition) at 1uM
COc1ccc(S(=O)(=O)N2CCOC2CNC(=O)C(=O)NCCc2c[nH]c3ccccc23)cc1C (stereo not drawn)	5.98%
CC(=O)c1nn(-c2ccccc2)cc1C(=O)c1cccc(Br)c1	8.59%
COc1ccc2c(c1)C1OCCC1C(c1ccco1)N2 (stereo not drawn)	5.93%
Cc1[nH]nc2nc(SCC(=O)NCC3CCCO3)n(-c3ccc(Br)cc3)c(=N)c12 (stereo not drawn)	4.63%
COc1ccc(OC)c(CN2CCN(C(=O)Cc3ccccc3)CC2)c1.O=C(O)C(=O)O	17.6%
COCCOC(=O)C1=C(C)Nc2ncnn2C1c1ccco1 (stereo not drawn)	6.75%
COc1cc(C(=O)NCC(c2cccs2)N2CCOCC2)cc(OC)c1OC (stereo not drawn)	6.68%
COc1ccc2c(c1)c1c(n2C(C)=O)C(OC(C)=O)=NCC1	2.42%
Cc1cc([N+](=O)[O-])ccc1NCc1cccc2ccccc12	14.6%
Cc1ccc(NC(=O)C(=O)NN=C2CCCC2)cc1C	27.2%
O=C(CN1C(=O)NC(c2ccccc2)(c2ccccc2)C1=O)N1CCN(c2ccccc2F)CC1	5.83%
Cc1cccc(CN2CCc3c(OCC(=O)NCc4ccco4)cccc3C2=O)c1	-8.38%
Cc1nc(NC(=S)NC(=O)c2ccccc2)sc1C(=O)N(C)C	0.13%
O=C(OC1CO[C@H]2O[C@@H]1[C@H](OC(=O)c1ccccc1)[C@H]2OC(=O)c1ccccc1)c1ccccc1 (stereo partly drawn)	12.2%
COCCn1c(SCC(=O)N2CCCc3ccccc32)nnc1-c1ccoc1C	-2.64%
CCc1cccc(NC2c3ccccc3C(=O)N2c2ccc(C)cn2)c1 (stereo not drawn)	7.48%
CCCCN(CC)CCNC(=O)Cn1cnc2sc(C)c(S(=O)(=O)N3CCC(C)CC3)c2c1=O	10.5%
Cc1cc(=O)c2cc(NC(=O)c3ccccc3Cl)ccc2[nH]1	14.4%
Cc1n[nH]c(C)c1S(=O)(=O)N1CCCC(C(=O)N2CCc3ccccc32)C1 (stereo not drawn)	4.86%
CN(C)c1ccc2c(c1)Sc1cc(N(C)C)ccc1N2C(=O)c1ccccc1	6.64%
CCOC(=O)c1ccc(NC(=O)CCNS(=O)(=O)c2cccs2)cc1	15.4%
